From PMC4468608, “A distinct p53 target gene set predicts for response to the selective p53–HDM2 inhibitor NVP-CGM097” (eLife, 2015)
Further values from the same series stand in other lists.

System: cell lines from the Cancer Cell Line Encyclopedia (CCLE)
Experiment: High-throughput cell viability assay, CCLE cell line panel (n = 356)
Format: cell-based, human
Description: Cell lines were partitioned into sensitive and insensitive groups based on compound potency (IC50). […] All other cell lines were obtained from ATCC (American Type Culture Collection), DSMZ (Deutsche Sammlung von Mikroorganismen und Zellkulturen), and HSRRB (Health Science Research Resources Bank) and cultured in RPMI or Dulbecco's modified Eagle's medium plus 10% FBS (Invitrogen, Carlsbad, CA) at 37°C, 5% CO2.

For `COc1cc2c(cc1OC(C)C)[C@H](c1ccc(Cl)cc1)N(c1ccc(N(C)C[C@H]3CC[C@H](N4CCNC(=O)C4)CC3)cc1)C(=O)C2` [NVP-CFC218], the sensitivity call (HCC70, TP53 MUT) was “insensitive (Sensitivity call for each compound was applied according to a cut-off of 4 µM for IC50 and -50% for Amax)”, the Amax (HCC1500, TP53 WT) was -63.62% and the sensitivity call (HCC1500, TP53 WT) was “insensitive (Sensitivity call for each compound was applied according to a cut-off of 4 µM for IC50 and -50% for Amax)”. For the same compound, the Amax (HCC4006, TP53 MUT) was -3.10%, the sensitivity call (HCC4006, TP53 MUT) was “insensitive (Sensitivity call for each compound was applied according to a cut-off of 4 µM for IC50 and -50% for Amax)” and the Amax (HCC-56, TP53 MUT) was 8.24%. For the same compound, the sensitivity call (HCC-56, TP53 MUT) was “insensitive (Sensitivity call for each compound was applied according to a cut-off of 4 µM for IC50 and -50% for Amax)”, the Amax (HCC-78, TP53 MUT) was 0.79% and the sensitivity call (HCC-78, TP53 MUT) was “insensitive (Sensitivity call for each compound was applied according to a cut-off of 4 µM for IC50 and -50% for Amax)”. For the same compound, the Amax (HCT 116, TP53 WT) was -66.04%, the sensitivity call (HCT 116, TP53 WT) was “sensitive (Sensitivity call for each compound was applied according to a cut-off of 4 µM for IC50 and -50% for Amax)” and the Amax (HD-MY-Z, TP53 MUT) was -21.14%. The sensitivity call (HD-MY-Z, TP53 MUT) was “insensitive (Sensitivity call for each compound was applied according to a cut-off of 4 µM for IC50 and -50% for Amax)”, the Amax (HEC-50B, TP53 MUT) was -23.10% and the sensitivity call (HEC-50B, TP53 MUT) was “insensitive (Sensitivity call for each compound was applied according to a cut-off of 4 µM for IC50 and -50% for Amax)”. The Amax (HEC-59, TP53 MUT) was -1.34%, the sensitivity call (HEC-59, TP53 MUT) was “insensitive (Sensitivity call for each compound was applied according to a cut-off of 4 µM for IC50 and -50% for Amax)” and the Amax (HEC-151, TP53 MUT) was -52.18%. For the same compound, the sensitivity call (HEC-151, TP53 MUT) was “insensitive (Sensitivity call for each compound was applied according to a cut-off of 4 µM for IC50 and -50% for Amax)”, the Amax (HEL 92.1.7, TP53 MUT) was 5.00% and the sensitivity call (HEL 92.1.7, TP53 MUT) was “insensitive (Sensitivity call for each compound was applied according to a cut-off of 4 µM for IC50 and -50% for Amax)”. The Amax (HGC-27, TP53 MUT) was -52.41%, the sensitivity call (HGC-27, TP53 MUT) was “insensitive (Sensitivity call for each compound was applied according to a cut-off of 4 µM for IC50 and -50% for Amax)” and the Amax (HH, TP53 MUT) was 14.86%. The sensitivity call (HH, TP53 MUT) was “insensitive (Sensitivity call for each compound was applied according to a cut-off of 4 µM for IC50 and -50% for Amax)”, the Amax (HPB-ALL, TP53 MUT) was -2.06% and the sensitivity call (HPB-ALL, TP53 MUT) was “insensitive (Sensitivity call for each compound was applied according to a cut-off of 4 µM for IC50 and -50% for Amax)”. The Amax (HSC-3, TP53 MUT) was -2.32%, the sensitivity call (HSC-3, TP53 MUT) was “insensitive (Sensitivity call for each compound was applied according to a cut-off of 4 µM for IC50 and -50% for Amax)” and the Amax (HSC-4, TP53 MUT) was -2.11%. The sensitivity call (HSC-4, TP53 MUT) was “insensitive (Sensitivity call for each compound was applied according to a cut-off of 4 µM for IC50 and -50% for Amax)”, the Amax (HT-29, TP53 MUT) was -14.05% and the sensitivity call (HT-29, TP53 MUT) was “insensitive (Sensitivity call for each compound was applied according to a cut-off of 4 µM for IC50 and -50% for Amax)”. The Amax (HT-144, TP53 WT) was -69.73%, the sensitivity call (HT-144, TP53 WT) was “sensitive (Sensitivity call for each compound was applied according to a cut-off of 4 µM for IC50 and -50% for Amax)” and the Amax (Hey-A8, TP53 WT) was -59.27%. The sensitivity call (Hey-A8, TP53 WT) was “sensitive (Sensitivity call for each compound was applied according to a cut-off of 4 µM for IC50 and -50% for Amax)”, the Amax (Hs 294T, TP53 MUT) was -63.14% and the sensitivity call (Hs 294T, TP53 MUT) was “sensitive (Sensitivity call for each compound was applied according to a cut-off of 4 µM for IC50 and -50% for Amax)”. For the same compound, the Amax (Hs 578T, TP53 MUT) was 12.21%, the sensitivity call (Hs 578T, TP53 MUT) was “insensitive (Sensitivity call for each compound was applied according to a cut-off of 4 µM for IC50 and -50% for Amax)” and the Amax (Hs 683, TP53 MUT) was 3.20%. For the same compound, the sensitivity call (Hs 683, TP53 MUT) was “insensitive (Sensitivity call for each compound was applied according to a cut-off of 4 µM for IC50 and -50% for Amax)”, the Amax (Hs 695T, TP53 WT) was -62.89% and the sensitivity call (Hs 695T, TP53 WT) was “sensitive (Sensitivity call for each compound was applied according to a cut-off of 4 µM for IC50 and -50% for Amax)”. For the same compound, the Amax (Hs 746T, TP53 MUT) was 0.34%, the sensitivity call (Hs 746T, TP53 MUT) was “insensitive (Sensitivity call for each compound was applied according to a cut-off of 4 µM for IC50 and -50% for Amax)” and the Amax (Hs 766T, TP53 MUT) was -25.13%. The sensitivity call (Hs 766T, TP53 MUT) was “insensitive (Sensitivity call for each compound was applied according to a cut-off of 4 µM for IC50 and -50% for Amax)”, the Amax (Hs 936.T, TP53 WT) was -53.45% and the sensitivity call (Hs 936.T, TP53 WT) was “insensitive (Sensitivity call for each compound was applied according to a cut-off of 4 µM for IC50 and -50% for Amax)”. The Amax (HuCCT1, TP53 MUT) was -1.97%, the sensitivity call (HuCCT1, TP53 MUT) was “insensitive (Sensitivity call for each compound was applied according to a cut-off of 4 µM for IC50 and -50% for Amax)” and the Amax (HuH-7, TP53 MUT) was -15.66%. For the same compound, the sensitivity call (HuH-7, TP53 MUT) was “insensitive (Sensitivity call for each compound was applied according to a cut-off of 4 µM for IC50 and -50% for Amax)”, the Amax (HuT 78, TP53 MUT) was 3.50% and the sensitivity call (HuT 78, TP53 MUT) was “insensitive (Sensitivity call for each compound was applied according to a cut-off of 4 µM for IC50 and -50% for Amax)”. For the same compound, the Amax (IA-LM, TP53 MUT) was 1.08%, the sensitivity call (IA-LM, TP53 MUT) was “insensitive (Sensitivity call for each compound was applied according to a cut-off of 4 µM for IC50 and -50% for Amax)” and the Amax (IGR-39, TP53 MUT) was -19.40%. For the same compound, the sensitivity call (IGR-39, TP53 MUT) was “insensitive (Sensitivity call for each compound was applied according to a cut-off of 4 µM for IC50 and -50% for Amax)”, the Amax (IPC-298, TP53 MUT) was -6.63% and the sensitivity call (IPC-298, TP53 MUT) was “insensitive (Sensitivity call for each compound was applied according to a cut-off of 4 µM for IC50 and -50% for Amax)”. For the same compound, the Amax (IST-MES2, TP53 MUT) was -3.22%, the sensitivity call (IST-MES2, TP53 MUT) was “insensitive (Sensitivity call for each compound was applied according to a cut-off of 4 µM for IC50 and -50% for Amax)” and the Amax (JHH-4, TP53 MUT) was -22.81%. For the same compound, the sensitivity call (JHH-4, TP53 MUT) was “insensitive (Sensitivity call for each compound was applied according to a cut-off of 4 µM for IC50 and -50% for Amax)”, the Amax (JVM-3, TP53 WT) was -65.00% and the sensitivity call (JVM-3, TP53 WT) was “sensitive (Sensitivity call for each compound was applied according to a cut-off of 4 µM for IC50 and -50% for Amax)”. For the same compound, the Amax (K029AX, TP53 WT) was -68.89%, the sensitivity call (K029AX, TP53 WT) was “sensitive (Sensitivity call for each compound was applied according to a cut-off of 4 µM for IC50 and -50% for Amax)” and the Amax (KARPAS-299, TP53 MUT) was -3.42%. For the same compound, the sensitivity call (KARPAS-299, TP53 MUT) was “insensitive (Sensitivity call for each compound was applied according to a cut-off of 4 µM for IC50 and -50% for Amax)”, the Amax (KATO III, TP53 MUT) was -5.58% and the sensitivity call (KATO III, TP53 MUT) was “insensitive (Sensitivity call for each compound was applied according to a cut-off of 4 µM for IC50 and -50% for Amax)”. The Amax (KCL-22, TP53 MUT) was -25.90%, the sensitivity call (KCL-22, TP53 MUT) was “insensitive (Sensitivity call for each compound was applied according to a cut-off of 4 µM for IC50 and -50% for Amax)” and the Amax (KMBC-2, TP53 MUT) was -69.03%. The sensitivity call (KMBC-2, TP53 MUT) was “sensitive (Sensitivity call for each compound was applied according to a cut-off of 4 µM for IC50 and -50% for Amax)”, the Amax (KMS-11, TP53 WT) was -2.60% and the sensitivity call (KMS-11, TP53 WT) was “insensitive (Sensitivity call for each compound was applied according to a cut-off of 4 µM for IC50 and -50% for Amax)”. For the same compound, the Amax (KMS-26, TP53 MUT) was 2.18%, the sensitivity call (KMS-26, TP53 MUT) was “insensitive (Sensitivity call for each compound was applied according to a cut-off of 4 µM for IC50 and -50% for Amax)” and the Amax (KNS-62, TP53 MUT) was -16.08%. For the same compound, the sensitivity call (KNS-62, TP53 MUT) was “insensitive (Sensitivity call for each compound was applied according to a cut-off of 4 µM for IC50 and -50% for Amax)”, the Amax (KO52, TP53 MUT) was -34.10% and the sensitivity call (KO52, TP53 MUT) was “insensitive (Sensitivity call for each compound was applied according to a cut-off of 4 µM for IC50 and -50% for Amax)”. The Amax (KP4, TP53 WT) was 0.41%, the sensitivity call (KP4, TP53 WT) was “insensitive (Sensitivity call for each compound was applied according to a cut-off of 4 µM for IC50 and -50% for Amax)” and the Amax (KP-2, TP53 MUT) was -23.35%. For the same compound, the sensitivity call (KP-2, TP53 MUT) was “insensitive (Sensitivity call for each compound was applied according to a cut-off of 4 µM for IC50 and -50% for Amax)”, the Amax (KP-3, TP53 MUT) was -3.05% and the sensitivity call (KP-3, TP53 MUT) was “insensitive (Sensitivity call for each compound was applied according to a cut-off of 4 µM for IC50 and -50% for Amax)”. For the same compound, the Amax (KS-1, TP53 WT) was -64.80%, the sensitivity call (KS-1, TP53 WT) was “sensitive (Sensitivity call for each compound was applied according to a cut-off of 4 µM for IC50 and -50% for Amax)” and the Amax (KU-19-19, TP53 WT) was -62.34%. The sensitivity call (KU-19-19, TP53 WT) was “insensitive (Sensitivity call for each compound was applied according to a cut-off of 4 µM for IC50 and -50% for Amax)”, the Amax (KYM-1, TP53 WT) was -80.17% and the sensitivity call (KYM-1, TP53 WT) was “sensitive (Sensitivity call for each compound was applied according to a cut-off of 4 µM for IC50 and -50% for Amax)”.
